Here are results for 28 sequences from the supplement of paper PMC6206098.

± gives the uncertainty stated by the source. The sequences are guide strands of siRNAs; only the seed at positions 2 to 7 varies.

One data set concerns 3LL. Description: cell viability relative to siNT1 control; higher = less toxic. The conditions noted are these: concentration: 10 nM; 96 h; Mus musculus.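 Note: Luminescence-based viability of cells reverse transfected in 384-well plates with lipid-complexed siRNAs built on a non-toxic 19mer backbone whose passenger strand carries 2′-O-methyl groups at positions 1 and 2, triplicates.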
The next data set deals with H460. As to the kind of experiment: cell viability relative to lipid-only control; HeyA8 human ovarian and H460 human lung cancer; M565 mouse liver and 3LL mouse lung cancer; siNT1 is a non-toxic control siRNA; higher = less toxic. The conditions noted are these: concentration: 10 nM; 96 h; Homo sapiens. How it is done:
(§1)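 Arrayed screen of 4096 siRNA duplexes, each carrying one of all possible 6mer seeds at guide-strand positions 2-7 in a fixed neutral 19mer scaffold (constant flanks: U at position 1, then ACAUGUAAACCA, plus a 3' AA overhang). The passenger strand is 2'-O-methylated at positions 1-2 so only the guide strand loads into RISC. Duplexes were reverse-transfected at 10 nM with RNAiMAX in triplicate in 384-well plates; viability was read by CellTiter-Glo ATP content 96 h after transfection. Values are % viability normalised to lipid-only wells (HeyA8, H460, M565) or to siNT1 (3LL).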

For the next data set, the system named is HeyA8. The description is as above. The settings on record: concentration: 10 nM; 96 h; Homo sapiens. How it is done:
as §1

The subject of another data set is M565. The description is as above. The conditions noted are these: concentration: 10 nM; 96 h; Mus musculus. The method, then:
as §1
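Throughout, for cell viability relative to lipid-only control: reverse lipid transfection in 384-well plates, in triplicate, of duplexes on a non-toxic 19mer backbone with passenger strand 2′-O-methylated at positions 1 and 2, luminescence viability read-out.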

Consider UCCAAGGACAUGUAAACCAAA, for which the cell viability with 3LL came to 99.7 ± 22%; with H460, 44.8 ± 6.1%; in the data set with HeyA8, 57.5 ± 2.1%; in the data set with M565, 16.6 ± 7.7%.

Regarding UACCGCGACAUGUAAACCAAA, the cell viability with 3LL was found to be 80.5 ± 4%; with H460 it was 92 ± 16%; in the data set with HeyA8, 98.5 ± 18%; in the data set with M565, 70.2 ± 14%.

As for UGUCCUUACAUGUAAACCAAA, the cell viability with 3LL worked out at 35 ± 14%; with H460 it was 46.1 ± 2.3%; in the data set on HeyA8, 52.2 ± 8.8%; with M565, 21.2 ± 5.4%.

With UUAGAAUACAUGUAAACCAAA, the cell viability in the data set with 3LL was found to be 70.5 ± 3.4%; in the data set on H460, 70.6 ± 8.6%; in the data set with HeyA8, 81.3 ± 4.8%; with M565 it was 109 ± 7.1%.

With UGUAGAAACAUGUAAACCAAA, the cell viability stood at 89.2 ± 9.9% with 3LL, 62.3 ± 2.8% in the data set on H460, 87.3 ± 9.5% in the data set with HeyA8 and 60.9 ± 9% with M565.

As for UGGUACGACAUGUAAACCAAA, the cell viability turned out to be 73.1 ± 1.6% with 3LL, 55.7 ± 2.9% in the data set on H460, 67.8 ± 5% in the data set with HeyA8 and 38.2 ± 4.8% with M565.

On to UCUAGUCACAUGUAAACCAAA, for which the cell viability in the data set on 3LL turned out to be 89.9 ± 7%; in the data set with H460, 74.4 ± 2.9%; with HeyA8, 76 ± 5.9%; in the data set on M565 it was 38 ± 6.9%.

Consider UUUUGGCACAUGUAAACCAAA, for which the cell viability with 3LL was 16.1 ± 0.33%; in the data set on H460 it was 40 ± 2.4%; in the data set on HeyA8, 69.1 ± 2.8%; in the data set with M565, 22.1 ± 4.4%.

With UGUAAUUACAUGUAAACCAAA, the cell viability with 3LL stood at 73.6 ± 12%; in the data set on H460 it was 65.4 ± 3.9%; with HeyA8, 38.7 ± 1.2%; in the data set on M565, 58.2 ± 7.3%.

In the case of UUCGCUUACAUGUAAACCAAA, the cell viability with 3LL was determined as 74.4 ± 11%; in the data set on H460, 69.1 ± 11%; with HeyA8, 90.2 ± 16%; in the data set on M565 it was 65.6 ± 8.9%.

Turning to UCCGUAGACAUGUAAACCAAA, the cell viability with 3LL was found to be 106 ± 17%; in the data set with H460, 59 ± 4.1%; in the data set on HeyA8, 77.8 ± 7.5%; with M565, 69.7 ± 6.8%.

Consider UGCAAGAACAUGUAAACCAAA, for which the cell viability in the data set with 3LL is 55.9 ± 9.3%; with H460, 77 ± 11%; in the data set on HeyA8, 90.4 ± 6.3%; in the data set on M565 it was 52.3 ± 2.9%.

UGGACCGACAUGUAAACCAAA: the cell viability was found to be 33.2 ± 3.6% in the data set on 3LL, 68.8 ± 9.4% in the data set on H460, 79.7 ± 2.8% in the data set with HeyA8 and 10.8 ± 1.9% with M565.

Consider UACGGGUACAUGUAAACCAAA, for which the cell viability with 3LL worked out at 34.4 ± 8%; in the data set with H460, 71.1 ± 7.2%; in the data set with HeyA8, 70.5 ± 14%; in the data set on M565, 24.6 ± 2.3%.

Turning to UUAUUUCACAUGUAAACCAAA, the cell viability in the data set with 3LL amounted to 19.5 ± 4.1%; with H460, 63.1 ± 8.7%; in the data set on HeyA8, 56.3 ± 2.2%; in the data set with M565, 23.6 ± 5.5%.

As to UUAGCACACAUGUAAACCAAA, the cell viability in the data set on 3LL came out at 15.6 ± 2.1%; in the data set with H460, 55.1 ± 5.1%; in the data set on HeyA8 it was 59.7 ± 3.9%; with M565, 13.1 ± 3.1%.

As to UAGUGCAACAUGUAAACCAAA, the cell viability in the data set on 3LL is 87.8 ± 2.3%; with H460 it was 91.3 ± 19%; with HeyA8, 81.6 ± 8%; in the data set with M565, 117 ± 18%.

With UAGCAGCACAUGUAAACCAAA, the cell viability turned out to be 29.9 ± 3.6% in the data set with 3LL, 27.7 ± 0.82% in the data set on H460, 36.5 ± 5.5% in the data set on HeyA8 and 22.2 ± 7.7% with M565.

As to UAUGUGUACAUGUAAACCAAA, the cell viability was determined as 32.5 ± 9.6% with 3LL, 54.6 ± 1.5% in the data set with H460, 54.4 ± 7.3% in the data set on HeyA8 and 61.8 ± 18% with M565.

Regarding UAAAGGCACAUGUAAACCAAA, the cell viability in the data set with 3LL turned out to be 31.3 ± 3.1%; in the data set on H460 it was 49.6 ± 10%; in the data set on HeyA8, 29.1 ± 2.2%; with M565, 18.9 ± 4.7%.

Consider UCCGGACACAUGUAAACCAAA, for which the cell viability with 3LL turned out to be 46.7 ± 14%; in the data set with H460 it was 35.1 ± 3.5%; in the data set on HeyA8 it was 38.7 ± 3.9%; with M565 it was 20.3 ± 3.4%.

Turning to UCUGGAGACAUGUAAACCAAA, the cell viability worked out at 97.1 ± 14% in the data set on 3LL, 65.4 ± 5.8% in the data set on H460, 71.6 ± 7.5% in the data set with HeyA8 and 70.3 ± 17% with M565.

Consider UUAGCCUACAUGUAAACCAAA, for which the cell viability in the data set with 3LL is 13.4 ± 4.2%; with H460, 54.4 ± 3.3%; in the data set on HeyA8 it was 40 ± 3.4%; in the data set on M565, 23.3 ± 4.5%.

Regarding UGACGCCACAUGUAAACCAAA, the cell viability is 21 ± 1.7% in the data set on 3LL, 43.6 ± 5.7% with H460, 83.5 ± 12% in the data set on HeyA8 and 13.8 ± 2.3% with M565.

As for UCACUUCACAUGUAAACCAAA, the cell viability with 3LL was 93.6 ± 13%; in the data set on H460, 32.5 ± 2.4%; in the data set with HeyA8, 27.5 ± 2.3%; with M565, 41.1 ± 11%.

Take UCAAGUGACAUGUAAACCAAA: the cell viability was determined as 84.3 ± 16% in the data set with 3LL, 68.3 ± 9.1% with H460, 79.7 ± 5.9% with HeyA8 and 66.6 ± 13% in the data set with M565.

Turning to UAAACACACAUGUAAACCAAA, the cell viability in the data set with 3LL was determined as 90.6 ± 15%; in the data set with H460, 94.2 ± 31%; in the data set with HeyA8, 107 ± 6.5%; with M565 it was 94.4 ± 23%.

As for UCGGAAGACAUGUAAACCAAA, the cell viability in the data set with 3LL is 86.4 ± 17%; in the data set with H460 it was 66.6 ± 12%; with HeyA8, 80.8 ± 11%; in the data set on M565 it was 65.3 ± 7.2%.

One may read the cell viability as a read-out of living cells in per cent, often relative to untreated cells.
